# From PMC6919601, “Identification of Plasmodium dipeptidyl aminopeptidase allosteric inhibitors by high throughput screening” (PLoS ONE, 2019)
# About 230 (0.21%) of roughly 110,000 compounds showed an effect of 50% or more. The list shows a part of the results.
# Biological target: DPAP1 (Plasmodium falciparum, UniProt Q8IIJ9)
# Assay: primary screen, percent inhibition; read by cleavage of a fluorogenic dipeptide substrate; higher = more effect of the substance
# Design: species or system P. falciparum D10 trophozoite lysates; single well
# 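Further: 30 min substrate incubation versus DMSO and 10 µM JCP410 controls.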
# Chain of DPAP1 (Q8IIJ9 whole entry, looked up): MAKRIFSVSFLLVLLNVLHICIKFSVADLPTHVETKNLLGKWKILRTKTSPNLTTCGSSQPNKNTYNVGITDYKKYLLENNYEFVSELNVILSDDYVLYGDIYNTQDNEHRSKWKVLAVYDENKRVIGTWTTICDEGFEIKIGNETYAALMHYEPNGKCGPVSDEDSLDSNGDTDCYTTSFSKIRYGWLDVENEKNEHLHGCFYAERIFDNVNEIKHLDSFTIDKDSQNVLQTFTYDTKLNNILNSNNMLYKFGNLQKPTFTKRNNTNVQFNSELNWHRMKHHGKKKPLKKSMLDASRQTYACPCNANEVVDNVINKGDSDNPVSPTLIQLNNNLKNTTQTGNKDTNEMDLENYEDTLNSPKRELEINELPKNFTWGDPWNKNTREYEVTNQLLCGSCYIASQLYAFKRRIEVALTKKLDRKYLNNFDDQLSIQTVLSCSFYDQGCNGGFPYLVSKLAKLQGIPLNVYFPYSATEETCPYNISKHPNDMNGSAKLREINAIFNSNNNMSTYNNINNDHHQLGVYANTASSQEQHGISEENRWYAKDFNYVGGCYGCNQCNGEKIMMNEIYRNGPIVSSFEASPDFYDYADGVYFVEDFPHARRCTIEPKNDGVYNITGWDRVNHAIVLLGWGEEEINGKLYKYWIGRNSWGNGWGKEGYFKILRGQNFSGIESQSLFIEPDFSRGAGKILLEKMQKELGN
row,Structure (SMILES),% Inhibition @ 10 uM [%]
1,COc1cc(C2C(C#N)=C(N)Oc3[nH]nc(-c4ccc(Br)cc4)c32)cc(OC)c1O (stereo not shown),-1.12
2,OC1CCN(CC2CC=CCC2)CC1 (stereo not shown),-0.446
3,CCCCn1nnc2c(=O)oc3ccc([N+](=O)[O-])cc3c21,5.55
4,CCN(CC)c1ccc(C2C3=C(O)CC(C)(C)CC3=NC(C)=C2C(=O)Nc2ccccn2)cc1 (stereo not shown),-6.34
5,CCOc1ccccc1N(CC(N)=O)S(=O)(=O)c1ccc(C)cc1,2.45
6,COCCNC(=O)/C(C#N)=C/c1c(Oc2ccc(Cl)c(C)c2)nc2c(C)cccn2c1=O,-3.23
7,CCOC(=O)N1CCC(NS(=O)(=O)c2csc(C(N)=O)c2)CC1,-11.6
8,CN1CCN(Cc2nc3c(c(=O)n(C)c(=O)n3C)n2Cc2cccc3ccccc23)CC1,-0.499
9,CCOC(=O)[C@H]1O[C@@H]1C(=O)NNC(=O)[C@H](Cc1cc(I)c(O)c(I)c1)NC(=O)c1ccc(Br)cc1,-8.26
10,Cc1nc2c(c(C)nn2C(C)(C)C)c(C)c1CCC(=O)NC1CCN(Cc2ccccc2)CC1,-4.24
11,CCCS(=O)(=O)N1CCC(C(=O)NCCN(CC(C)C)CC(C)C)CC1,-1.79
12,O=C1OC(/C=C/c2ccc(Cl)cc2Cl)=NC/1=C\c1ccco1,1.11
13,Cc1cc(-c2ccc(C)c(S(=O)(=O)NCC3CCN(Cc4ccco4)CC3)c2)on1,1.56
14,CSC1=NSC2=NC(=O)/C(=C\c3ccc(Br)o3)C(=N)N12,-3.51
15,Cc1cc(C)n2nc(NC(=O)C(C)Oc3ccccc3)nc2n1 (stereo not shown),5.2
16,OC(COc1ccc2ccccc2c1)CN1CCOCC1 (stereo not shown),-3.85
17,CCOC(=O)C1=C(C)OC(N)=C(C#N)C1c1ccc(F)c(F)c1 (stereo not shown),-6.18
18,O=C(c1ccccc1)c1nc2ccccc2nc1O,0.726
19,O=C(Nc1cccc(Cl)c1)c1ccc(Cl)c(S(=O)(=O)N2CCOCC2)c1,14.3
20,CCOCCCNC(=O)C(NC(=O)c1ccc(O)nc1)c1ccccc1 (stereo not shown),2.84
21,COc1ccc(S(=O)(=O)Nc2nc3c(C)cccc3s2)cc1,-5.54
22,CCCc1[nH]nc2c1C(c1ccccc1C(F)(F)F)C(C#N)=C(N)O2 (stereo not shown),-0.661
23,Cn1c(Oc2ccc(Cl)c3cccnc23)nc2c1c(=O)n(Cc1ccc(F)cc1)c(=O)n2C,-7.08
24,N#CCc1cc2ccc3cccnc3c2[nH]1,1.49
25,COc1ccc(N2CCN(C(=O)NC3CCCCC3)CC2)cc1,1.96

row,Structure (SMILES),% Inhibition @ 10 uM [%]
1,COCCNC(=O)c1c(NC(=O)c2cc(=O)c3ccc(C)c(C)c3o2)sc2c1CCCC2,-3.24
2,CC(C)CNC(=O)c1ccccc1NC(=O)c1ccc(CN2CCOCC2)cc1,-4.71
3,CCOc1ccc(OCC)c(S(=O)(=O)N2CCOCC2)c1,-1.2
4,CCc1nnc(SCc2ccccc2)c2cc3occc3n12,3.35
5,COc1ccc(-c2nc3n(n2)C(=O)CCS3)cc1,6.97
6,COC(=O)Nc1ccc(S(=O)(=O)N2CCCCC2)cc1,2.51
7,O=C(CCc1nc(CN2CCN(S(=O)(=O)c3ccc(F)cc3)CC2)no1)N1CCCC1,9.5
8,Cc1ccc(S(=O)(=O)NCC2(C)CC(NS(=O)(=O)c3ccc(C)cc3)CC(C)(C)C2)cc1 (stereo not shown),2.09
9,CSc1ccc2c(c1)C(=O)Cc1ccccc1S2,1.4
10,CSc1ccc(CN2CCCN(C)CC2)cc1,6.18
11,CCOc1ccc(C(=O)NC2CCCCCC2)cc1S(=O)(=O)N1CCCCCC1,10.6
12,CCN(CC)S(=O)(=O)c1cc(C(=O)Nc2ccccn2)ccc1Br,1.13
13,CCC(Oc1ccccc1)C(=O)N1CCN(c2ccc(Cl)cc2)CC1 (stereo not shown),1.67
14,CC(C)Cn1cc(NC(=O)NCc2cccnc2)c2ccccc2c1=O,0.358
15,OCc1ccc(Sc2ccc(Cl)cc2)cc1,3.65
16,CCN1CCC(N2CCOCC2)CC1,-0.233
17,O=C(c1cccs1)n1cc(C(=O)C(F)(F)F)c2ccccc21,-11.2
18,Cc1ccc(CNC(=O)CCCn2c3ccccc3c3cnnc(O)c32)cc1,3
19,CCS(=O)(=O)c1nc(S(=O)(=O)c2ccc(C)cc2)c(NCc2cccnc2)s1,-5.89
20,Clc1ccc(-c2csc3ncnc(N4CCCCCC4)c23)cc1,0.408
21,Cc1nn(CCCC(=O)NCCc2ccccc2)c(=O)c2c1sc1ccccc12,-5.27
22,Cc1[nH]c2ccccc2c1Cc1nnc(S)n1Cc1ccccc1,-1.11
23,CC1=C(C(=O)NCCC(C)C)C2(CCC(C)CC2)OC1=O (stereo not shown),-1.89
24,CC(C)CCn1c(=O)c2cccnc2n(CC(N)=O)c1=O,1.72
